Binding data for two molecules are collected here from paper PMC6057269.

Protein sequences, listed by entry. Tags and fused reporters are not part of them. Lines headed by an entry give the natural chain unless they say otherwise; changes in a name come on top. Chains listed by the source or under a name are the forms on record and can include a tag or linker. Residues count along the entry.
mitochondrially targeted GFP-ITSN1 SH3d, wild type (Q15811, residues 1076-1138): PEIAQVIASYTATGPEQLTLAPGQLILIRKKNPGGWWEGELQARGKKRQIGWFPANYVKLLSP
mitochondrially targeted GFP-ITSN1 SH3d R1119E (Q15811, form named): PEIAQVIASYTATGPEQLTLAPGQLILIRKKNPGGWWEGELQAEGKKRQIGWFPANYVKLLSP

Results are given in words; binding and its absence hold for the method and conditions named. Some entries that bind do so weakly or less than the wild type. Sequences can lack the tags named with a protein.

The target in assay [1] is mitochondrially targeted GFP-ITSN1 SH3d R1119E (human) (UniProt Q15811). Kind of assay: recruitment to mitochondria by a mistargeted bait (microscopy); ITSN1 SH3d mistargeted to mitochondria by the TOM20 transmembrane domain in HeLa cells; FCHSD2-FusionRed co-transfected or endogenous FCHSD2 stained; confocal imaging.
The target in assay [2] is mitochondrially targeted GFP-ITSN1 SH3d, wild type (human) (UniProt Q15811). The assay is described as above.

B1: FCHSD2-FusionRed (protein, UniProt O94868-1 1-740)
chain: MQPPPRKVKVTQELKNIQVEQMTKLQAKHQAECDLLEDMRTFSQKKAAIEREYAQGMQKLASQYLKRDWPGVKADDRNDYRSMYPVWKSFLEGTMQVAQSRMNICENYKNFISEPARTVRSLKEQQLKRCVDQLTKIQTELQETVKDLAKGKKKYFETEQMAHAVREKADIEAKSKLSLFQSRISLQKASVKLKARRSECNSKATHARNDYLLTLAAANAHQDRYYQTDLVNIMKALDGNVYDHLKDYLIAFSRTELETCQAVQNTFQFLLENSSKVVRDYNLQLFLQENAVFHKPQPFQFQPCDSDTSRQLESETGTTEEHSLNKEARKWATRVAREHKNIVHQQRVLNDLECHGAAVSEQSRAELEQKIDEARENIRKAEIIKLKAEARLDLLKQIGVSVDTWLKSAMNQVMEELENERWARPPAVTSNGTLHSLNADTEREEGEEFEDNMDVFDDSSSSPSGTLRNYPLTCKVVYSYKASQPDELTIEEHEVLEVIEDGDMEDWVKARNKVGQVGYVPEKYLQFPTSNSLLSMLQSLAALDSRSHTSSNSTEAELVSGSLNGDASVCFVKALYDYEGQTDDELSFPEGAIIRILNKENQDDDGFWEGEFNGRIGVFPSVLVEELSASENGDTPWMREIQISPSPKPHASLPPLPLYDQPPSSPYPSPDKRSSLYFPRSPSANEKSLHAESPGFSQASRHTPETSYGKLRPVRAAPPPPTQNHRRPAEKIEDVEITLV
Regarding B1, the binding entry in assay [1] is reported as “no binding”; in assay [2] it was “binds”.

B2: FCHSD2 (endogenous, HeLa) (protein, UniProt O94868 1-740)
chain: B1 chain
With B2, the values for the binding entry in assay [1] and in assay [2] were “no binding” and “binds”, respectively.
